# Experimental data reported in PMC4336329 (PLoS ONE, 2015).
# Among all 310,000 compounds or so, about 2,200 (0.71%) showed an effect of 50% or more. The effect is printed as a negative number. The list shows a part of the results.
# Target: human ether-à-go-go-related gene (hERG) potassium channel (human, UniProt Q12809)
# Test: primary screen, population patch clamp on CHO cells stably expressing hERG
# Sequence of human ether-à-go-go-related gene (hERG) potassium channel (Q12809 whole entry, looked up): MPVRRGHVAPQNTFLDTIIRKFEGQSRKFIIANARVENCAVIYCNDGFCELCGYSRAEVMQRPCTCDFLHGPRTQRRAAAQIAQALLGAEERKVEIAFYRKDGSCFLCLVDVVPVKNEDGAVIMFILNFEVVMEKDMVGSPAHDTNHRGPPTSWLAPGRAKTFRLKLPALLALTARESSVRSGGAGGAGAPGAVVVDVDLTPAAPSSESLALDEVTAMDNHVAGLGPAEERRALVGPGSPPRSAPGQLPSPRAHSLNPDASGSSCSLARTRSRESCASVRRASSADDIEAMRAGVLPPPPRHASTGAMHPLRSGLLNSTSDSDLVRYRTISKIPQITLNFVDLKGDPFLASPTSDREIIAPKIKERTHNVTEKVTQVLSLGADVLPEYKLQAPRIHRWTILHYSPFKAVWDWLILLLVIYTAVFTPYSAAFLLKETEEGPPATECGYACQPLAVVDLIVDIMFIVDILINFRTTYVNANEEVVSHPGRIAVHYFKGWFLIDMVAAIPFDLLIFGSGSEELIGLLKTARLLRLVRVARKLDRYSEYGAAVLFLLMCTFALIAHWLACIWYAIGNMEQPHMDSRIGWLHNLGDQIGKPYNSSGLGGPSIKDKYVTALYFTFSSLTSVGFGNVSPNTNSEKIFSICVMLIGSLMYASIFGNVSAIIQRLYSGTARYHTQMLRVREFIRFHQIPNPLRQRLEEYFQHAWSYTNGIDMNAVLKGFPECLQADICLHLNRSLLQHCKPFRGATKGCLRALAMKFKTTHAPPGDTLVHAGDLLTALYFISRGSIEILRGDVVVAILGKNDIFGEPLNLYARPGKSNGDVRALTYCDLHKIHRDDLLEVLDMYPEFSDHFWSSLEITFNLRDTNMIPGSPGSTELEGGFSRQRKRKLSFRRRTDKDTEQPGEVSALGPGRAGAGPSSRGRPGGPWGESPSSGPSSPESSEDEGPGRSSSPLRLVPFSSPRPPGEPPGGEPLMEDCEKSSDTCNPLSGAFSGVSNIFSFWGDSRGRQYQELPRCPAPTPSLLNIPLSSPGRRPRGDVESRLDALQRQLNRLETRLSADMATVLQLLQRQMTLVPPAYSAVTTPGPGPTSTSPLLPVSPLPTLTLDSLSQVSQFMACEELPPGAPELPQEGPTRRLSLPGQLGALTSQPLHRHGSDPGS
row,SMILES,"hERG current change (%, negative = inhibition) at 1uM"
1,COc1ccc(C(=O)NC2CCN(C(=S)NCCc3ccccc3)CC2)cc1,11.4%
2,CC(C)Cc1c2c([nH]c(=S)c1C#N)CCCC2,15.4%
3,COc1ccc(NC(=O)c2ccc(COc3ccccc3Br)o2)c(OC)c1,11.1%
4,C=CCNC(=O)C1CCN(S(=O)(=O)CC)CC1,1.84%
5,Cc1ccc(CSC2=NCCN2S(=O)(=O)c2ccc(F)cc2)cc1,9.99%
6,O=C(NC(=S)N1CCCc2ccccc21)c1ccco1,9.28%
7,c1ccc(SCCCCNC2CCCC2)cc1,-2.58%
8,N#C/C(=C\c1cn(Cc2cccc(F)c2)c2ccccc12)C(=O)NCc1ccco1,13.8%
9,COc1ccc(C(=O)C2CCCN(C(=O)c3ccc(F)cc3)C2)cc1OC (centres unmarked),5.09%
10,O=C(CSc1nnc(CNC(=O)c2cccc(C(F)(F)F)c2)o1)NC1CCCC1,9.05%
11,N#Cc1cn(-c2cccc(C(F)(F)F)c2)c(=O)[nH]c1=O,13.8%
12,COc1ccc(NC(=O)/C=C/c2ccccc2)cn1,5.89%
13,Cc1cc(NS(=O)(=O)c2ccc(NC(=S)NC(=O)c3cccnc3)cc2)no1,4.82%
14,O=c1nc(Nc2cccc(Cl)c2)oc2cc(Cl)oc(=O)c12,13%
15,Cc1ccc(NC2=NC(=S)N(CC#N)C23CCCCC3)cc1,-2.71%
16,CSc1nnc(CNS(=O)(=O)c2ccc(Cl)cc2)n1C,17.8%
17,COCCNC(=O)c1c(N)n(-c2ccccc2)c2nc3ccccc3nc12,-6.18%
18,CN(C)S(=O)(=O)c1ccc(C(=O)OCC(=O)Nc2ccc(OC(F)F)cc2)cc1,12%
19,Nc1c(-c2cccs2)cnn1-c1nc(-c2ccc(F)cc2)cs1,11.5%
20,CCc1nc(SCC(=O)Nc2cc(C)on2)n[nH]1,2.4%
21,Cc1ccccc1NC(=O)COc1ccccc1C,18.3%
22,Cc1ccc(NCc2ccc(O)c3ncccc23)cc1,17.9%
23,CCOc1ccc(NC(=O)CNc2ccc(C)cc2Cl)cc1,12.5%

row,SMILES,"hERG current change (%, negative = inhibition) at 1uM"
1,O=C(CSc1nc2ccccc2nc1N1CCCC1)Nc1ccc(F)cc1,11.1%
2,O/N=C/c1ccnc(SCc2ccccc2)n1,4.94%
3,CC(C)Oc1nc(-c2ccc(Cl)cc2)nc2ccccc12,11%
4,COc1ccc(N2C(=O)c3ccccc3C2=O)cc1,5.04%
5,CCCCCCP(=O)(O)c1ccccc1,5.36%
6,O=S(=O)(NCC(Nc1ccc(Cl)cc1)c1ccccc1)c1ccc(Cl)cc1 (centres unmarked),17.4%
7,COC(=O)C1=C(N)c2c(F)cccc2C1(C#N)c1ccccc1 (centres unmarked),5.51%
8,CCNC(=O)C(=O)Nc1ccc2c(c1)N(S(=O)(=O)c1cccs1)CCC2,14.6%
9,O=C(Cn1cc(C(F)(F)F)ccc1=O)Nc1ccccc1,14%
10,COc1ccc(N(CC(=O)Nc2ccc3c(c2)OCO3)S(=O)(=O)c2c(C)nn(C)c2C)cc1,15.5%
11,CCOC(=O)c1ccc(N=Cc2nc(-c3ccccc3)oc2OC(C)=O)cc1,14.1%
12,COc1cc2c(cc1NC(=O)CN1CCN(S(=O)(=O)c3ccc(C)cc3)CC1)oc1ccccc12,6.22%
13,O=C(NC1CCCCC1)C1CCC(CNS(=O)(=O)c2cccc3nsnc23)CC1 (centres unmarked),17%
14,Cc1ccc(-c2nn(C)c(=O)c3ccccc23)cc1S(=O)(=O)N1CCOCC1,-20.6%
15,CC(C(=O)Nc1ccc(S(=O)(=O)N2CCCC2)cc1)N1CCN(C(=O)c2ccco2)CC1 (centres unmarked),4.96%
16,Cc1c(C(=O)Nc2ccc(S(=O)(=O)Nc3ncccn3)cc2)oc2ccccc12,13.5%
17,Cc1ccc(S(=O)(=O)N2CCOCC2)cc1C(=O)Nc1ccccc1N1CCCC1,-27.3%
18,CCCCCOC(=O)Cn1c(=O)c2c(nc(N3CCOCC3)n2C)n(C)c1=O,-19.7%
19,COc1ccc(Cc2nnc(SCC(=O)N3CCN(c4ccccc4)CC3)o2)cc1,-6.76%
20,O=S1(=O)NC(=NCCOCCO)c2ccccc21,6.35%
21,COc1ccc(OCC(O)COc2ccc(C(=O)O)cc2)cc1 (centres unmarked),8.21%
22,COc1cccc(NC(=O)c2ccc(NC(C)=O)cc2)c1,11.5%
23,CC1Cn2c(nnc2-c2ccc(F)cc2)S1 (centres unmarked),-1.74%

row,SMILES,"hERG current change (%, negative = inhibition) at 1uM"
1,CCCCNC(=O)c1ccc(CNS(=O)(=O)c2ccc(Br)cc2)cc1,10.6%
2,COc1ccc(C2C(C(=O)NCc3cccnc3)c3cc(OC)c(OC)cc3C(=O)N2C)cc1 (centres unmarked),21%
3,COC(=O)C1CCN(C(=O)NC2CCCCC2)CC1,9.37%
4,Cc1noc(C)c1CSc1nnc(-c2ccccc2F)n1CCc1ccccc1,-15.8%
5,O=C(CN1C(=O)NC2(CCCCCC2)C1=O)N1CCN(c2ccc(F)cc2)CC1,-5.24%
6,CCSc1nc2ccccc2n1CC(N)=O,8.06%
7,O=C(c1cnn2c(C(F)(F)F)cc(-c3ccccc3)nc12)N1CCCc2ccccc21,6.05%
8,CCOc1ccc(NC(=O)Cn2nnc(C(=O)NCc3cccs3)c2N)cc1,16.9%
9,CCOCCCNS(=O)(=O)c1ccc(NC(=O)N2c3ccccc3Sc3ccccc32)cc1,9.57%
10,COc1ccc(C(C(=O)NC2CCCC2)N(C(=O)c2ccco2)c2ccccc2OC)cc1 (centres unmarked),10.5%
11,Cc1ccc(/C=C2\CCOC2=O)cc1,2.64%
12,COCCCNC(=O)c1c(NC(=O)C2COc3ccccc3O2)sc2c1CCCC2 (centres unmarked),17.1%
13,Cc1c(/C=N/NC(N)=O)c2ccccn2c1C(=O)c1ccncc1.Cl,-19.4%
14,CCCCNC(=O)c1cn(CC)c2ccc(S(=O)(=O)N3CCCCCC3)cc2c1=O,15.6%
15,CN(C(=O)c1cc(-n2cnnc2)ccc1Cl)c1ccccc1,14%
16,Cc1cc(NC(=O)C2CCCN(S(=O)(=O)c3c(C)noc3C)C2)n[nH]1 (centres unmarked),-7.28%
17,CCN=C1S/C(=C/c2ccc(-c3ccc(Cl)cc3C(=O)O)o2)C(=O)N1CC,18.3%
18,CN(C)CCNC(=O)C(=O)c1c(-c2ccccc2)cc2ccccn12,14.9%
19,O=C(COc1ccc2c(-c3ccccc3)cc(=O)oc2c1)N[C@H](Cc1c[nH]c2ccccc12)C(=O)O,-10.5%
20,O=C(NN=C1c2ccccc2-c2ccccc21)c1ccccc1,-1.71%
21,COC(=O)NC1(C(F)(F)F)C(=O)Nc2c1c(=O)n(C)c(=O)n2C (centres unmarked),12%
22,CCN(Cc1cc2ccccc2[nH]c1=O)S(=O)(=O)c1ccccc1,10.3%
23,CC(=O)Nc1ccc(Sc2ccccc2C(=O)O)cn1,11.4%

row,SMILES,"hERG current change (%, negative = inhibition) at 1uM"
1,Clc1ccccc1CSc1nnc(-c2cccnc2)n1Cc1ccco1,-14.2%
2,NC(CO)C(O)c1ccc([N+](=O)[O-])cc1 (centres unmarked),10.7%
3,O=C1N=C(N2CCCCC2)S/C1=C\c1ccc(Cl)cc1,8.58%
4,COc1cccc(C(=O)COc2cccc(NC(=O)c3ccco3)c2)c1,1.82%
5,CN(C)CCNC(=O)C(c1ccccc1)c1ccccc1,4.76%
6,Cn1c2ccccc2n2c(=O)c(=O)n(CC(=O)c3ccc(Cl)cc3)nc12,5.96%
7,Cc1cccc(-c2nc(CN3CCN(Cc4cccc(F)c4)CC3)c(C)o2)c1,2.78%
8,Cc1cc(Nc2c(C)n(C)n(-c3ccccc3)c2=O)n2c(nc3cc(F)c(F)cc32)c1C#N,9.44%
9,COc1ccc(CCNC(=O)CN(C)S(=O)(=O)c2ccc(OC)cc2)cc1,8.46%
10,O=C(c1ccco1)N1CCN(C(=O)C23CC4CC(CC(C4)C2)C3)CC1,3.85%
11,C=CCn1c(=O)/c(=C/c2ccc(O)cc2)s/c1=C(/C#N)c1nnc2n1CCCCC2,7.03%
12,COc1cccc(S(=O)(=O)Nc2ccc3c(c2)OCCO3)c1,2.18%
13,Cc1ccc(S(=O)(=O)Oc2ccc(/C=N/NC(=O)c3nn(C)cc3[N+](=O)[O-])cc2)cc1,3.14%
14,Cc1cc(OCC(=O)OCC(=O)N2CCc3ccccc3C2)ccc1Cl,15.7%
15,CCN(CC)C(=O)CN1CCN(c2ccccc2F)CC1.Cl,16.1%
16,Cn1c(SCC(=O)NNC(=O)Cc2ccccc2)nnc1-c1ccc(Cl)cc1,1.97%
17,O=C(NNC(=O)c1cc(Cl)nc2ccccc12)c1ccccc1F,16.1%
18,COc1ccc(N(CC(=O)NCCc2cccc(C)c2)S(=O)(=O)c2c(C)noc2C)cc1,10.7%
19,Cc1ccc(S(=O)(=O)N(C)C)cc1NC(=O)COC(=O)/C=C/c1ccc2ccccc2n1,8.57%
20,Cc1ccc(S(=O)(=O)NC(C(=O)Oc2ccc3c(C)c(Cl)c(=O)oc3c2)c2ccccc2)cc1 (centres unmarked),8.73%
